The assay deals with T1, OVA (UniProt P01012 2-386).
T1 construct: Unconjugated carrier protein used as negative antigen; also called negative protein OVA
T1 sequence (looked up): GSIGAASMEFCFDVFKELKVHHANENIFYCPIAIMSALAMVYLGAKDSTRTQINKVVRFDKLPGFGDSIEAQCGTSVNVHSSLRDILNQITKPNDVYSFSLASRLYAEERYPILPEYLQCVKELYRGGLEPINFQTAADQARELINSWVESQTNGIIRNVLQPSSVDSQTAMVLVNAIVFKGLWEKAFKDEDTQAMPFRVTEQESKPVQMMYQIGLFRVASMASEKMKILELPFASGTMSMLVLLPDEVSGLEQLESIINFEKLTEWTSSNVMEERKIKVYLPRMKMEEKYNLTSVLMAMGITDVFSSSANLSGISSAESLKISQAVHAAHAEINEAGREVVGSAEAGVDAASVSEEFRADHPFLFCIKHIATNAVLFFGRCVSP
Briefly: ELISA, OVA coated at 1 µg/mL, anti-human IgG HRP.

B1: PP-1A-#600 (PP-1A-#85 peptide + MSLN VHH+ Fc) (Fc fusion)
chain: ACDESHGVPHTSGMCGGGSEVQLVESGGGLVQPGGSLRLSCAVSGFPLSSYGMSWARQAPGEERELVAHIGTTGGSTNYADSVKGRFTISRDNAKNSVYLQMNSLRAEDTAVYYCRARRQMPSNEYWGQGTTVTVSS[human IgG1 Fc not listed]
notes: Expressed in E. coli BL21; also called antibody fusion peptide; PP-1A-#600 fusion molecule
Consider B1, for which the binding result is given as “no binding”.
